# B1: CD3hi TSP1: Trispecific binding molecule: NEG258-based CD19 Fab, CD3hi anti-CD3 scFv, CD58 IgV domain, knob-into-hole silenced hIgG1 Fc (antibody)
# heavy: QVQLVQSGAEVKKPGASVKVSCKASGYTFTTYWIQWVRQAPGQRLEWMGAVYPGDADTRYTQKFQGRVTLTADRSASTAYMELSSLRSEDTAVYYCGRDAGLEYYALDYWGQGTLVTVSSASTKGPSVFPLAPSSKSTSGGTAALGCLVKDYFPEPVTVSWNSGALTSGVHTFPAVLQSSGLYSLSSVVTVPSSSLGTQTYICNVNHKPSNTKVDKRVEPKSCGGGGSGGGGSEVQLVESGGGLVQPGGSLKLSCAASGFTFNTYAMNWVRQASGKGLEWVGRIRSKYNNYATYYADSVKDRFTISRDDSKSTLYLQMNSLKTEDTAVYYCVRHGNFGNSYVSWFAYWGQGTLVTVSSGGGGSGGGGSGGGGSGGGGSQAVVTQEPSLTVSPGGTVTLTCRSSTGAVTTSNYANWVQQKPGQAPRGLIGGTNKRAPWTPARFSGSLLGDKAALTLSGAQPEDEAEYFCALWYSNLWVFGGGTKLTVLGGGGSDKTHTCPPCPAPELLGGPSVFLFPPKPKDTLMISRTPEVTCVVVAVSHEDPEVKFNWYVDGVEVHNAKTKPREEQYASTYRVVSVLTVLHQDWLNGKEYKCKVSNKALAAPIEKTISKAKGQPREPQVCTLPPSREEMTKNQVSLSCAVKGFYPSDIAVEWESNGQPENNYKTTPPVLDSDGSFFLVSKLTVDKSRWQQGNVFSCSVMHEALHNHYTQKSLSLSPGK
# light: EIVMTQSPATLSVSPGERATLSCRASQDVGTAVAWYQQKPGQAPRLLIYWASTRHTGIPARFSGSGSGTEFTLTISSLQSEDFAVYFCQQYANFPLYTFGQGTKLEIKRTVAAPSVFIFPPSDEQLKSGTASVVCLLNNFYPREAKVQWKVDNALQSGNSQESVTEQDSKDSTYSLSSTLTLSKADYEKHKVYACEVTHQGLSSPVTKSFNRGEC
# chain: SQQIYGVVYGNVTFHVPSNVPLKEVLWKKQKDKVAELENSEFRAFSSFKNRVYLDTVSGSLTIYNLTSSDEDEYEMESPNITDTMKFFLYVLESGGGGSDKTHTCPPCPAPELLGGPSVFLFPPKPKDTLMISRTPEVTCVVVAVSHEDPEVKFNWYVDGVEVHNAKTKPREEQYASTYRVVSVLTVLHQDWLNGKEYKCKVSNKALAAPIEKTISKAKGQPREPQVYTLPPCREEMTKNQVSLWCLVKGFYPSDIAVEWESNGQPENNYKTTPPVLDSDGSFFLYSKLTVDKSRWQQGNVFSCSVMHEALHNHYTQKSLSLSPGK
# Tests used:
# T cells = assay: Re-challenge T cell phenotyping with Karpas 422 and OCI-LY-19; format: cell-based, human; conditions: 1 nM, after third challenge, Karpas 422 and OCI-LY-19 models
# Procedure: OCI-LY-19 and Karpas422 target cells stably expressing firefly luciferase were plated in a Costar 6 well plate in T Cell Media (TCM). PBMCs previously isolated and cryopreserved from 2 Leukopak donors were thawed and Pan T cells were isolated (as described earlier). Co-cultures of T cells and OCI-LY-19 or Karpas 422 cells at E:T ratio of 1:1 was set-up and 1 nM of CD3hi BSP1, CD3med TSP1, or CD3hi TSP1 was added. The plates were incubated for 4 days for OC-LY-19 and 5 days for Karpas 422 cells. At the end of incubation, the killing of target cells and absolute T cell counts from each antibody treated condition was determined. The T cell counts were normalized across different antibody conditions and two additional rounds of re-challenges were set-up the same way as the previous challenge with a 4 day incubation for both target cells, for a total of three challenges. After the third challenge, T cells from different antibody treated conditions were harvested on day 2 from the Karpas 422 co-cultures and on day 4 from OCI-LY-19 co-cultures and split into 2 fractions. One fraction was stained with blue fixable viability dye (ThermoFisher Scientific, Cat #L23105) prior to staining with a cocktail of anti-human CD3 (Biolegend, Cat #317324), CD4 (Biolegend, Cat #344608), CD8 (BD Biosciences, Cat #563795), CD27 (Biolegend, Cat #356412) & CD62L mAb (Biolegend, Cat #304814). […]
# [1] = test system: CD19+ Nalm6-luc target cells; assay: RTCC against Nalm6 with sorted CD8 T cell subsets (Example 27); format: cell-based, human
# Excerpt: Peripheral blood mononuclear cells (PBMCs) previously isolated from buffy coat donors (Bern Hospital) and cryopreserved were thawed and total T cells were isolated by negative selection using the Pan T cell Isolation Kit, human (Miltenyi Biotec, Cat #130-096-535) following the manufacturer's protocol. The positive fraction (called PBMCs-T cell depleted) was irradiated at 50Gy in order to be used as feeder in the co-culture.
# From the negative fraction, enriched in total T cells, CD8^+ T cells were then isolated by an additional step of negative selection using EasySep™ Human CD8+ T Cell Enrichment Kit (Stem Cell, Cat #19053). Untouched CD8^+ cells were then stained with an anti-CD28 antibody (Biolegend, Cat #302922) and sorted with a FACSAria (BD) according to the CD28 expression: CD8^+CD28^+ and CD8^+CD28^−. The purity of th sorted cells was >95%. […]
# Plates were incubated in a 37° C. incubator with 5% CO2 for 72 hrs. Following the co-incubation, One-Glo (Promega, catalog #E6110) was added to all wells and the luminescence signal was subsequently measured on an ELISA Reader 4.18 1 (Biotek, Synergy H1). […] The percent RTCC of target cells was calculated using the following formula: [100−(sample/maximal signal)*100%].
molecule,measurement,setting,value
B1,"cytokine production from the T cells (IL-2, IFNγ)",T cells,induce better cytokine production from the T cells compared to the other CD19 binders tested
same,enrichment of younger phenotype of T cells,T cells,better promoted enrichment of younger phenotype of T cells than CD3med TSP1 and CD3hi BSP1
same,RTCC with CD8+CD28- T cells,"[1]; 0.1 nM or 1 nM, in presence of irradiated feeder, compared to the other treatments",increase
same,RTCC activity,"[1]; sorted CD8 T cells, 72 hrs, compared to control antibody CD3hi TSP1C",mediated RTCC activity

# From patent US12221481B2, “CD19 binding molecules and uses thereof” (Novartis AG, priority 2019, dated 2025)
